In PubChem BioAssay (NCATS):
“And” between values parts separate entries of the source, which are not always exact repeats. Equal entries are not always repeated. The shares of active, inactive and inconclusive entries below differ from those in the screen. For some assays here: Potencies of inconclusive entries are doubtful fits and often do not repeat. For some assays here: A note “side channel” means that the fit belongs to a control or component signal, not to the main read-out. The source made the active and inactive calls. Unless noted, calls follow the shape of the dose curve; as a rule, active = well fitted curve in the direction sought with a large enough effect; inconclusive = small, poorly fitted or top-dose-only effect, or another doubt; inactive = no such curve, though single readings can be large; an effect the other way counts as inactive or inconclusive.

Legend:
[1] = P-glycoprotein substrates identified in KB-8-5-11 adenocarcinoma cell line, qHTS therapeutic library screen (AID 1346987); also: nearly all actives have a fitted effect of over 65% in size
Outline: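 Compounds are pinned in dose-response onto KB-8-5-11 cells (500 cells/well, colchicine-free medium) and left 72 h at 37 degree C. CellTiter-Glo luminescence then yields AC50 values.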

[2] = Primary qHTS for small molecule stabilizers of the endoplasmic reticulum resident proteome: Secreted ER Calcium Modulated Protein (SERCaMP) assay (AID 1508630); details: SH-SY5Y GLuc-SERCaMP (Gaussia luciferase released on ER calcium loss) secretion, thapsigargin, luminescence; series mostly up to 38.4 µM
Outline: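 The SH-SY5Y reporter protocol was run at 3 concentrations up to 38.3 uM (primary) or 11 concentrations (follow-up): 16 h compound, 100 nM thapsigargin for 4 h, then extracellular luciferase luminescence.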

[3] = qHTS for Inhibitors of the Functional Ribonucleoprotein Complex (vRNP) of Lymphocytic Choriomeningitis Arenaviruses (LCMV): Viability assay - alamar blue signal for LCMV Primary Screen (AID 1347085; calls by dose curve; tested in HEK293 reporter line; also: nearly all actives have a fitted effect of over 80% in size); details: alamar blue viability counter-screen, LCMV vRNP screen cells; series mostly up to 57.5 µM
[4] = target: RecQ-like DNA helicase BLM (Homo sapiens) (UniProt P54132); test: qHTS Validation Assay for Inhibitors of Bloom's syndrome helicase (BLM) (AID 2364)
Outline: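 Forked 20-bp duplex substrate (200 nM, TAMRA/BHQ-2) plus 2 mM ATP added after 15 min compound preincubation with 50 nM enzyme, pH 8.0, poly(dI-dC) 2.5 ug/ml. Strand separation followed by fluorescence (525/598 nm) over 2 h, normalized to enzyme-free and DMSO controls.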

[5] = target: ATP-dependent 6-phosphofructokinase (Trypanosoma brucei brucei) (UniProt O15648); test: qHTS Validation Assay to Find Inhibitors of T. brucei phosphofructokinase (AID 485368)
Sequence of UniProt O15648 (O15648 whole entry, looked up): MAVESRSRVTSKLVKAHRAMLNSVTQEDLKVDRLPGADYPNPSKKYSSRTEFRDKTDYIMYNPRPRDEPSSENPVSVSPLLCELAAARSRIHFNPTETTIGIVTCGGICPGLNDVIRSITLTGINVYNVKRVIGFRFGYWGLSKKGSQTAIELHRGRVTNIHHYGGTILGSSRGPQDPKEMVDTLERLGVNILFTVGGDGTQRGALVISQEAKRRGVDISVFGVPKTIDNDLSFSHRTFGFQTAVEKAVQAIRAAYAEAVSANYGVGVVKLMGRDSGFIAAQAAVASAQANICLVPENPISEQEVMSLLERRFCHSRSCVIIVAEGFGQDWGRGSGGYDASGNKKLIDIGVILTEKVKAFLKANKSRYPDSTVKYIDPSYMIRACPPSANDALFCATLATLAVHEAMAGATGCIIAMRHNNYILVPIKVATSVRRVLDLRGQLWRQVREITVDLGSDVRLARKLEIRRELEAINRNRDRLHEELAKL
Outline: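 Luminescent ADP detection measures PFK turnover of fructose-6-phosphate (0.5 mM) with ATP (0.1 mM) at pH 8.0. Reaction runs 45 min at room temperature with 1.25 nM enzyme; inhibitors tested as titrations up to 57 uM.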

[6] = Quantitative high throughput screen for delayed death inhibitors of the malarial parasite plastid, 96 hour incubation (AID 488745); also: nearly all actives have a fitted effect of over 70% in size
Outline: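 Decreased firefly luciferase luminescence indicates inhibited growth of reporter-integrated P. falciparum after two generations (96 h, 37 C, 5% CO2). Infected erythrocytes at 0.1% parasitemia, 2% hematocrit, in Albumax-supplemented RPMI 1640.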

[7] = target: ATPase family AAA domain-containing protein 5 (Homo sapiens) (UniProt Q96QE3); test: Validation screen for small molecules that inhibit ELG1-dependent DNA repair in human embryonic kidney (HEK293T) cells expressing luciferase-tagged ELG1 (AID 493107); details: HEK293T ELG1-luciferase level, luminescence, 5-fluorouridine co-treatment, 16 h; series mostly up to 46.1 µM; also: nearly all actives have a fitted effect of over 70% in size
Sequence of UniProt Q96QE3 (Q96QE3 whole entry, looked up, the tested form may be a part): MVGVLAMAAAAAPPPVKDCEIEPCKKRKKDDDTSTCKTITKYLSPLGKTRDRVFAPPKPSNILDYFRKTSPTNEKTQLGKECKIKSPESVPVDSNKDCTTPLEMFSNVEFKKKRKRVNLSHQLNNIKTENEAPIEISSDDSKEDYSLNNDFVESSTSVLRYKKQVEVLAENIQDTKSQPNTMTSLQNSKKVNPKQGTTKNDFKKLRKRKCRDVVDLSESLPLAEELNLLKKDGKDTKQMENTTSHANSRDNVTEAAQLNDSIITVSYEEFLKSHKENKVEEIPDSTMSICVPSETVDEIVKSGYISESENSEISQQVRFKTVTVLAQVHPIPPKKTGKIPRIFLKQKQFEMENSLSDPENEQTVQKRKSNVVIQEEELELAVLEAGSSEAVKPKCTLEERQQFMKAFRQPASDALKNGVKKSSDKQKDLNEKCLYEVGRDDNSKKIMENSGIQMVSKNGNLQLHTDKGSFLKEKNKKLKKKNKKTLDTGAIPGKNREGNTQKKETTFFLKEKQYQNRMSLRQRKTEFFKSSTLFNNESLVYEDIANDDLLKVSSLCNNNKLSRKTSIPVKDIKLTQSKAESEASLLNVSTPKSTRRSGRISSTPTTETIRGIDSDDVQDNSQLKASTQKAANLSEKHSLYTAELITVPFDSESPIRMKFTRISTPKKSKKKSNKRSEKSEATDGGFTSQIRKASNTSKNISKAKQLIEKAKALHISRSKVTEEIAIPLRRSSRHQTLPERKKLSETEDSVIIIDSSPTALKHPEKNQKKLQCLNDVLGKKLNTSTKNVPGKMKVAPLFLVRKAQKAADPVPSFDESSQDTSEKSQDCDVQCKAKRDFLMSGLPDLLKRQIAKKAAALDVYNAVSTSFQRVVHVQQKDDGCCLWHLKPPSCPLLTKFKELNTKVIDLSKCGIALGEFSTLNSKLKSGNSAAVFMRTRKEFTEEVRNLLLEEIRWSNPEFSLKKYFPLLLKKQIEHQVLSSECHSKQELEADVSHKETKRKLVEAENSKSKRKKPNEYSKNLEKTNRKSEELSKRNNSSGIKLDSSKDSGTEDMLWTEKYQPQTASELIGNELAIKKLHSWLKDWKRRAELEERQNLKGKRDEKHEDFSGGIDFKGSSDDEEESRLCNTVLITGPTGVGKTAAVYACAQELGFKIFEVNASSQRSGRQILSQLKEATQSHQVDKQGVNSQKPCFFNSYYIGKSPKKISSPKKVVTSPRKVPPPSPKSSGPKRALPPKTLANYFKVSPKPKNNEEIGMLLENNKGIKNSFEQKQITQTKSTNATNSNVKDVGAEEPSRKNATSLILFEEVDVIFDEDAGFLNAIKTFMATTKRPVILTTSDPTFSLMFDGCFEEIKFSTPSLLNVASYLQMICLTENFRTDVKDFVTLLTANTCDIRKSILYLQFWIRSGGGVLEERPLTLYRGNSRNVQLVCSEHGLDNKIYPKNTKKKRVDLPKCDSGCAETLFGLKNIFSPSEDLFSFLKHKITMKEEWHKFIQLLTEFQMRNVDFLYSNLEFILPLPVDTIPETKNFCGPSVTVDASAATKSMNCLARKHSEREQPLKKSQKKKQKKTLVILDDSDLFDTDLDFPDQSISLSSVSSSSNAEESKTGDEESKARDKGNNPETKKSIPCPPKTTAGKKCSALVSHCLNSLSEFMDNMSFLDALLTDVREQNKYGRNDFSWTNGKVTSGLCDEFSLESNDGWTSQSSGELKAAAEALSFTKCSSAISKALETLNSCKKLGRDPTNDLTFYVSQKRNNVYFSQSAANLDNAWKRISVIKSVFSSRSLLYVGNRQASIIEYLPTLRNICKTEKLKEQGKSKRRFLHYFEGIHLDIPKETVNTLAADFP
Outline: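 Luciferase read-out, ONE-Glo, 30 min at room temperature, follows 16 h co-exposure at 37 C of compound and the DNA-damaging agent 5-fluorouridine. Cells: HEK293T with ELG1-luciferase fusion, 2,000 per well, DMSO as vehicle.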

[8] = target: Ubiquitin carboxyl-terminal hydrolase 1 (Homo sapiens) (UniProt O94782); test: Inhibitors of USP1/UAF1: Pilot qHTS (AID 504865);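 also: rhodamine fluorescence freed from ubiquitin-rhodamine substrate followed over time; nearly all actives have a fitted effect of over 35% in size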
Sequence of UniProt O94782 (O94782 whole entry, looked up): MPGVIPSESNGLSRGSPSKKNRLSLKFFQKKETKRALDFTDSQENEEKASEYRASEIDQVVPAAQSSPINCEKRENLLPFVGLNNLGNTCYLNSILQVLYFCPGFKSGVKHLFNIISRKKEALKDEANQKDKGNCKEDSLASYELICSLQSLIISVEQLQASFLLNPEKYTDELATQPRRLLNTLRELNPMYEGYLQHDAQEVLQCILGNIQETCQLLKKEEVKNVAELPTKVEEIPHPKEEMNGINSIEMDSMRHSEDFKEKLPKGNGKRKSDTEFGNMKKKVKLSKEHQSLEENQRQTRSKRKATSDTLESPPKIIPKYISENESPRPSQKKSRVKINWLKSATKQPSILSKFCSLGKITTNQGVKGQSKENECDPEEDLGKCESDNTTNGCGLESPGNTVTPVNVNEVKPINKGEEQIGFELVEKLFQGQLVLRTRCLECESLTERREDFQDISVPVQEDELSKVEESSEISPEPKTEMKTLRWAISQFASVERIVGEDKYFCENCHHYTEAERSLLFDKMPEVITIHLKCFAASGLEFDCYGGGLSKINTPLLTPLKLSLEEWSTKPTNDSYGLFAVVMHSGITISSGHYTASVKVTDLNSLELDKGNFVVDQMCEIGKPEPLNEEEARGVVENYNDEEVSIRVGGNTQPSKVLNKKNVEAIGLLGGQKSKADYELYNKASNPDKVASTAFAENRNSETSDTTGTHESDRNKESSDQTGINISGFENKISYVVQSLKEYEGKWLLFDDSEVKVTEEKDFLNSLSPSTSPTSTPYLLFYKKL
Outline: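 Deubiquitinase activity followed as kinetic rhodamine fluorescence release from 150 nM Ub-Rho. 1 nM USP1/UAF1 with compound, after 15 min room-temperature preincubation, in HEPES pH 7.8 buffer containing TCEP, EDTA, BSA and Tween-20.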

[9] = Natriuretic polypeptide receptor (hNpr1) antagonism - Pilot counterscreen GloSensor control cell line (AID 1347045; calls by dose curve)
Outline: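 Control counterscreen: luciferase cGMP-biosensor HEK293 cells (no Npr1) received compound for 30 min at room temperature after GloSensor substrate loading. Luminescence was measured before and 20 min after soluble guanylyl cyclase activation by 50 uM nitroprusside.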

[10] = target: Tyrosine-protein phosphatase non-receptor type substrate 1 (Homo sapiens) + Leukocyte surface antigen CD47 (Homo sapiens) (UniProt P78324+Q08722); test: CD47-SIRPalpha protein protein interaction - HTRF assay qHTS validation (AID 1347058; active = well fitted curve in the direction sought with a large enough effect in the signal ratio, not every such curve was filed as active; inconclusive = small, poorly fitted or top-dose-only effect, or effect the other way, or a change in a side signal; inactive = no such curve, though single readings can be large or run the other way; the % refers to the signal ratio)
Outline: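 Soluble extracellular domains (6His-CD47, Avi-tag-biotinylated SIRPalpha) in PBS pH 7.4 with 0.05% IGEPAL CA-630. Compounds were preincubated 30 min at RT with CD47 and anti-His-Eu, then SIRPalpha and SAV-XL665 were added. TR-FRET 665/615 ratio.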

[11] = target: N-terminal Xaa-Pro-Lys N-methyltransferase 1 (Homo sapiens) (UniProt Q9BV86); test: qHTS Assay for Inhibitors of N-terminal methyltransferase 1 (NTMT1): LOPAC validation of the NTMT1 SAHH-coupled ThioGlo3 Assay (AID 1347143);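 also: SAH from peptide methylation measured as thiol fluorescence via SAHH coupling and ThioGlo3; nearly all actives have a fitted effect of over 70% in size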
Sequence of UniProt Q9BV86 (Q9BV86 whole entry, looked up): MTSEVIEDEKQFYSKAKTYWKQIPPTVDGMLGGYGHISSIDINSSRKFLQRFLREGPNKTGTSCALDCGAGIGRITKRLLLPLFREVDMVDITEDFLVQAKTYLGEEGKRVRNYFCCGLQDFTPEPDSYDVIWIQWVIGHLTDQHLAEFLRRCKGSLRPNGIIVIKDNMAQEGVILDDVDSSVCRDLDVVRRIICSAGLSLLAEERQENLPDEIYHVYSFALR
Outline: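 NTMT1 125nM + cpds (various conc.), 1 min RT; add SAM 100uM/SAHH 10uM/ThioGlo3 15uM (addition mix). SAHH-coupled thiol detection, Ex340/Em450, t0 and 30 min RT; signal normalized to background. LOPAC 1280-cpd pilot.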

[12] = target: Lysine-specific demethylase 5B (Homo sapiens) (UniProt Q9UGL1); test: Optimization screen for KDM5B Histone Demethylases FDH coupled qHTS against the LOPAC library (AID 1347166); details: KDM5B demethylation, FDH-coupled NADH fluorescence (FDH is formaldehyde dehydrogenase); series mostly up to 57.5 µM
Sequence of UniProt Q9UGL1 (Q9UGL1 whole entry, looked up): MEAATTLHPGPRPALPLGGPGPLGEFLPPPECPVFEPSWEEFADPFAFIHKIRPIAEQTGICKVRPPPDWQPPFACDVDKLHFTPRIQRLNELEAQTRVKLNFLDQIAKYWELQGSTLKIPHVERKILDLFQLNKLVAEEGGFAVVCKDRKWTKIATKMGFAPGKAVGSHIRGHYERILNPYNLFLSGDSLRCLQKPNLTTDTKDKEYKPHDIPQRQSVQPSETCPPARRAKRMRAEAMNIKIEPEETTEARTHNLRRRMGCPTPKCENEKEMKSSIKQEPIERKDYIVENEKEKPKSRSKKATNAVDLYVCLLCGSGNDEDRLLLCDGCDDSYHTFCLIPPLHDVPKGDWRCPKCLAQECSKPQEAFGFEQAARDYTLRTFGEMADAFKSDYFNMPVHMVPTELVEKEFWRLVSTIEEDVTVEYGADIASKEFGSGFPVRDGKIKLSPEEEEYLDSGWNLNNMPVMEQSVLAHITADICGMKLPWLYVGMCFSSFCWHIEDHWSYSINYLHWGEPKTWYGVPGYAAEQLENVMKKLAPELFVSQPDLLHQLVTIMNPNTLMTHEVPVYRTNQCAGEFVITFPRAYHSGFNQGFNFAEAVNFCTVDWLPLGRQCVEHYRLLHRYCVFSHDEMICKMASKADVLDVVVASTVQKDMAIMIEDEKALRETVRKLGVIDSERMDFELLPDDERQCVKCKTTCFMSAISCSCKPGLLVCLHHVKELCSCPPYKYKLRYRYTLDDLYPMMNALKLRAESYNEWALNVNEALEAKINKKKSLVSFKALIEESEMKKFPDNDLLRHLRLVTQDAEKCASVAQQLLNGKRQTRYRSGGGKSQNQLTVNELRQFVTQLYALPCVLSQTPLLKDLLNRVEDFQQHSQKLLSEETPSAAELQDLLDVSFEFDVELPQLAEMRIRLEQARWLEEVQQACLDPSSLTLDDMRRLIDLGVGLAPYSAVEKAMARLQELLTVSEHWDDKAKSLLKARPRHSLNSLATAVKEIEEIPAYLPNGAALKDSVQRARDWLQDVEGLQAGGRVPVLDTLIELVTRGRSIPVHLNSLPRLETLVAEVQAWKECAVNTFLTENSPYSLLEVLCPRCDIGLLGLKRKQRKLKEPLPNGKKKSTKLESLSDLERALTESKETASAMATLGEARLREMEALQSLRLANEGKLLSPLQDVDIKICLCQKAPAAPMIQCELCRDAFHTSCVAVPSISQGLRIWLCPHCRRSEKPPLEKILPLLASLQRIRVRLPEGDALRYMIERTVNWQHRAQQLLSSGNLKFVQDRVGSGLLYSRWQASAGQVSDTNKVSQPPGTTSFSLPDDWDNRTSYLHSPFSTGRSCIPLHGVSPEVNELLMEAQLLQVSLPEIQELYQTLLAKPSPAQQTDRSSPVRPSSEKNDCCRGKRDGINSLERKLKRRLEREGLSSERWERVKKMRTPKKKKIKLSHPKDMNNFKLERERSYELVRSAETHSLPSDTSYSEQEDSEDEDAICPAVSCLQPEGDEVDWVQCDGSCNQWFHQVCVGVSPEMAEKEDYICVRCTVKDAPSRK
Outline: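 KDM5BDeltaAP (200nM final) in 50mM HEPES pH 7.5, 0.01% Tween-20 was preincubated with compound for 10 min at room temperature. A substrate mix of 12.5uM H3K4Me3, 25uM a-ketoglutarate, ascorbate, Fe2+, NAD+ and formaldehyde dehydrogenase was then added. NADH fluorescence (340/450 nm) was read initially and after 30 min.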

[13] = qHTS Assay for Identifying Gametocytocidal Compounds (AID 743244); details: P. falciparum 3D7 stage III-V gametocytes, alamarBlue, 72 h; max response: active compounds read low
Outline: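 Late gametocytes (III–V), P. falciparum 3D7; 72 h drug, then 24 h alamarBlue; resazurin reduction read by fluorescence.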

[14] = qHTS for differential inhibitors of proliferation of Plasmodium falciparum line D10 (AID 1877);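 also: parasites grown with compound for 72 h before DNA staining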
[15] = qHTS for differential inhibitors of proliferation of Plasmodium falciparum line HB3 (AID 1886); details: Potency: Plasmodium falciparum HB3 proliferation inhibition;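 also: parasites grown with compound for 72 h before SYBR Green readout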
Potency is read from the fitted curve at half-maximal effect; tags tell the direction and shape of the fitted curve.

For Cc1cc(C)cc(C(=O)OC2C[C@H]3CC[C@@H](C2)N3C)c1 (stereo not given in full), the Potency [1] was inconclusive: 25.9 µM [inhibitor, single point] and the Potency [2] was inconclusive: 8.91 µM [inhibitor, partial curve, poor fit].

In the case of O=C1NC(=O)c2c1c1c3ccccc3[nH]c1c1[nH]c3ccccc3c21, the Potency [3] is reported as inconclusive: 39.8 µM [inhibitor, single point] and the Potency [2] is reported as inconclusive: 28.2 µM [inhibitor, single point].

In the case of CC(=O)c1c(O)c(C)c(O)c(Cc2c(O)c3c(c(C(=O)/C=C/c4ccccc4)c2O)OC(C)(C)C=C3)c1O, the Potency [4] is reported as inconclusive: 31.6 µM [inhibitor, partial curve], the Potency [5] is reported as inconclusive: 33.8 µM [falling, single point] and the Potency [6] is reported as inconclusive: 18.5 µM [inhibitor, single point]. For the same molecule, the Potency [7] was inconclusive: 29.1 µM [inhibitor, single point], the Potency [8] was active: 79.4 µM and active: 56.2 µM and the Potency [1] was inconclusive: 29.1 µM [inhibitor, single point]. The Potency [9] was inconclusive: 0.0185 µM [inhibitor, full curve, poor fit], the Potency [10] was inconclusive: 20.7 µM [side channel, falling, single point] and the Potency [11] was active: 50.1 µM. The Potency [12] was inconclusive: 10 µM [inhibitor, partial curve, poor fit] and the Potency [2] was inconclusive: 31.6 µM [inhibitor, partial curve, poor fit] and inconclusive: 10 µM [inhibitor, partial curve, poor fit] and inconclusive: 31.6 µM [inhibitor, single point].

In the case of NCC(O)c1cccc(O)c1 (stereo not given), the Potency [1] is reported as “inactive”.

With COCC1OC(=O)c2coc3c2C1(C)C1=C(C3=O)C2CCC(=O)C2(C)CC1OC(C)=O (stereo not given) the Potency [1] was active: 6.51 µM.

With COC[C@@H]1OC(=O)c2coc3c2[C@]1(C)C1=C(C3=O)[C@H]2CC[C@H](O)[C@@]2(C)C[C@@H]1OC(C)=O the Potency [1] was inconclusive: 23.1 µM [inhibitor, single point].

With Clc1ccc2c(c1)C(c1ccccc1)=NCc1nncn1-2 the Potency [1] was “inactive”.

For c1cc2c(cc1C1OC[C@@H]3C(c4ccc5c(c4)OCO5)OC[C@H]13)OCO2 (stereo not given in full), the Potency [1] was inconclusive: 25.9 µM [inhibitor, partial curve].

With C[C@]12CC[C@H]3[C@@H](CC=C4C[C@@H](O)CC[C@@]43C)[C@@H]1CC[C@@H]2O the Potency [1] was active: 11.6 µM.

For CC(C)=CC1C(C(=O)OCc2cccc(Oc3ccccc3)c2)C1(C)C (stereo not given), the Potency [8] was inconclusive: 50.1 µM [inhibitor, partial curve, poor fit], the Potency [1] was “inactive” and the Potency [2] was “inactive”.

With O.O.O.O=C([O-])C(O)C(O)C(=O)[O-].O=C([O-])C(O)C(O)C(=O)[O-].[K+].[K+].[Sb].[Sb] (stereo not given) the Potency [13] was active: 0.708 µM.

With C[C@@H](CO)NC(=O)[C@@H]1C=C2c3cccc4[nH]cc(c34)C[C@H]2N(C)C1 the Potency [1] was inconclusive: 16.4 µM [inhibitor, single point].

For CCOC(=O)c1ccccc1C(=O)OCC, the Potency [1] was “inactive”.

With CC(C)(C)c1cc(O)ccc1O the Potency [8] was “inactive” and the Potency [1] was inconclusive: 23.1 µM [inhibitor, single point].

With CC[C@H]1[C@@H]2C[C@H]3[C@@H]4N(C)c5ccccc5[C@]45C[C@@H](C2[C@H]5O)N3[C@@H]1O (stereo not given in full) the Potency [1] was “inactive”.

For CCOP(=O)(OCC)O/C(=C/Cl)c1ccc(Cl)cc1Cl, the Potency [8] was inconclusive: 56.2 µM [inhibitor, partial curve, poor fit] and the Potency [1] was active: 10.3 µM.

With CCN(CC)C(=O)N[C@H]1C[C@@H]2c3cccc4[nH]cc(c34)C[C@H]2N(C)C1 the Potency [13] was inconclusive: 35.5 µM [inhibitor, single point] and the Potency [1] was inconclusive: 16.4 µM [inhibitor, single point].

With c1cncc(OC[C@@H]2CCN2)c1 the Potency [1] was “inactive”.

In the case of CCCCC[C@@H](O)C1C(=O)OC(C)[C@H](O)/C=C/C=C/C=C/C=C/C=C(\C)C(O)C(O)C(O)C[C@H](O)C[C@H](O)C[C@H](O)C[C@H](O)C[C@@H]1O (stereo not given in full), the Potency [1] is reported as “inactive”.

For COc1cc(C[C@H](C)N)c(OC)cc1Br, the Potency [1] was “inactive”.

In the case of COC[C@@H]1OC(=O)/C(=C\N(C)CCCN(C)C)C2=C(O)C(=O)C3=C([C@@H](OC(C)=O)C[C@@]4(C)[C@@H]3CC[C@@H]4O)[C@@]21C, the Potency [1] is reported as inconclusive: 13 µM [inhibitor, partial curve, poor fit].

With C=C(C)[C@@H]1CCC(C)=C[C@H]1c1c(O)cc(CCCCC)cc1O the Potency [1] was inconclusive: 29.1 µM [inhibitor, single point].

In the case of CC(=O)OCC(=O)[C@H]1CC[C@H]2[C@@H]3CC[C@H]4C[C@H](O)CC[C@]4(C)[C@H]3C(=O)C[C@]12C, the Potency [1] is reported as “inactive”.

With CC(C)NC(C)Cc1ccc(I)cc1 (stereo not given) the Potency [14] was inconclusive: 7.08 µM [inhibitor, partial curve, poor fit], the Potency [15] was inconclusive: 11.2 µM [inhibitor, partial curve, poor fit] and the Potency [4] was “inactive”. The Potency [5] was inconclusive: 8.49 µM [falling, single point], the Potency [6] was inconclusive: 4.65 µM [inhibitor, partial curve, poor fit] and the Potency [7] was “inactive”. For the same molecule, the Potency [13] was inconclusive: 5.62 µM [inhibitor, single point], the Potency [1] was inconclusive: 13 µM [inhibitor, partial curve, poor fit] and the Potency [11] was “inactive”. For the same molecule, the Potency [12] was “inactive”.
